# Assay results reported in the supplement of paper PMC10338343.
# ± gives the standard deviation. The entries are a selection whose mix differs from that of the whole data set.
# Tested on: MIWI (PIWIL1) piRISC loaded with piRNA #1 (30 nt)
# Experiment: pre-steady-state target cleavage rate (min^-1); MIWI and MILI are mouse PIWI proteins and EfPiwi is from a freshwater sponge; tags in brackets are library labels; higher = faster piRNA-guided slicing of the target
# Conditions: guide: piRNA #1 5'p-UGAGGUAGUAGGUUGUAUAGUAUCCAGAGG; auxiliary factor: 500 nM mouse GTSF1
# Method in brief: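 In this Cleave-'n-Seq assay, uncleaved targets were sequenced and normalised to depth and to weakly complementary targets. They came from a transcribed, DNA-blocked target RNA library […] mixed with 1 nM active affinity-purified piRISC carrying one synthetic guide, with or without 500 nM GTSF1 partner protein, in HEPES–potassium acetate buffer at 33 °C for 0–8 or 0–960 min. After three trials were pooled and k3 was capped at 0.0001 min^-1, the pre-steady-state cleavage rate was obtained from a burst-and-steady-state fit.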
# 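Also: 1 nM active piRISC with 0.1 nM target library at 33 °C single turnover.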
row,Sequence,pre-steady-state target cleavage rate
1,GGAGUGGAUACUAUUACAACCUACUACCUCA,1.41 ± 0.11
2,GGAGUGGAUACUAAACAACGUACUACCUCA,0.553 ± 0.038
3,GGUGAGGAUACUAUACAACCUACUACCUCA,0.727 ± 0.042
4,CCACUGGAUACUAUAGAACCUACUACCUCA,0.818 ± 0.055
5,GGAGACGAUACUAAACAACCUACUAGCUCA,0.498 ± 0.048
6,GGAGACCUAACUAUACAACCUACUCCCUCA,0.463 ± 0.06
7,GGAGACCUUACUUUACUACCUACUACCUCA,0.0816 ± 0.01
8,GGAGUGGAAAGUAUACAACCUACUACCUCA,0.678 ± 0.039
9,GGAGUGGAUACUAAACAACCUUCUACCUCA,0.591 ± 0.033
10,GGAGACCUAUCUAAACAACCUACUACCACA,0.0234 ± 0.0083
11,GGACUGGAUACAAUACAACCUUCUACCUCA,0.634 ± 0.045
12,GGAGACCUAACUUUACAUCCUACUACCUCA,0.138 ± 0.052
13,GGAGACCUUACUAUACAACCUACUACUUCA,1.58 ± 0.12
14,GGAGACCUAUCUAUACAACCUACUACCAUCA,0.782 ± 0.063
15,GCUCUGGAUACUAUAAACCUACUACCUCA,1.21 ± 0.12
16,CCUCUGGAUACUAUACAACCUAGUAGCUCA,0.172 ± 0.058
17,GCUCUGGAUAGUAUACAACCUUCUACCUCA,0.532 ± 0.033
18,GGACUGGAUUCUAUACAACCUACAACCUCA,0.447 ± 0.059
19,GGAGACCUUACUUUACAACCUACUACGUCA,0.42 ± 0.043
20,GGAGACCAUAGUAUACAACCUACUAGCUCA,0.0867 ± 0.015
21,GGAGUGGAUACUAUACAACCUUCUUCCUCA,0.0055 ± 0.002
22,GGAGACCUAACUAUACAACCUAGUAGCUCA,0.00642 ± 0.0045
23,GGACUGGAAACUAUACAACCUACUUCCUCA,0.00362 ± 0.0025
24,GGAGACCAUACUAUACAACCUACUACCUA,1.03 ± 0.066
